Data reported in article PMC12040169 (PLOS Biology, 2025).
This is one part of the list.

Tested on: T1, C. trachomatis L2/434/Bu expressing GFP (CTL2-GFP)
T1 construct: L2/434/Bu GFP intracellular growth in HeLa cells
Parameters: species or system HeLa; C. trachomatis total inclusion area by high-content imaging, normalised to DMSO
Settings: total inclusion area; 28.5 h, 10 µM; inhibitor
Procedure, shortened: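 High-content images of fixed, Hoechst-stained infected cultures supply inclusion area and count (growth) plus nuclei number (viability), complementing bulk GFP/resorufin fluorescence. MIC determination is unchanged from the primary assay.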

SMILES | % of control remaining
COc1ccc(/C=N/c2cc(S(=O)(=O)c3ccc(O)c(/N=C/c4ccc(OC)c(O)c4)c3)ccc2O)cc1O [CBK261223] | 92.6746
Cn1c(=O)oc2cc(NC(=O)CC3CCN(Cc4cccc(C(F)(F)F)c4)CC3)ccc21 [CBK285953] | 126.413
Cn1cc(C(=O)NC2CCN(C(=O)c3cccc(C#N)c3)CC2)cn1 [CBK305673] | 37.427
Cc1nc(=O)c(-c2ccccc2)c(C)n1-c1ccc2cn[nH]c2c1 [CBK288193] | 82.9867
NC(=O)CC[n+]1ccc2ccccc2c1 [CBK022857C] | 54.4536
NC1=NNC2=C(c3ccc(Cl)cc3Cl)NNN12 [CBK093660] | 92.7528
O=C(c1ccc(F)cc1)[C@H]1CCCN(C(=O)c2cc(C3CC3)n[nH]2)C1 [CBK282410] | 90.8136
O=C(Nc1ccc2ncccc2c1)c1cccc(F)c1Cl [CBK159800] | 91.3526
CCN(CC)c1ccc(CN(CCCN(C)C)C(=O)NCC2CCCCC2)cc1 [CBK159392] | 59.2442
O=C(NC1CCCC1)c1ccc2c(c1)C(=O)N(CC1CCCO1)C2=O (centres unmarked) [CBK269777] | 75.5058
CC(C)NC(=O)N1C[C@@H]2C[C@H](C1)c1ccc(-c3cccnc3)c(=O)n1C2 [CBK289184] | 119.84
O=C(NCc1ccc(F)cc1)NC(=O)C1CCN(CCc2ccc(Br)cc2)CC1 [CBK034836] | 95.1984
O=C(Nc1ccncc1)c1cnn(-c2ccc(Cl)cc2)c1C(F)(F)F [CBK107441] | 110.991
CC(C)(C)CC(=O)NS(=O)(=O)c1cccc(-c2nnco2)c1 [CBK305258] | 78.0636
Cn1c(N2CCOCC2)nc2cc(C(=O)NCCn3cccn3)ccc21 [CBK307033] | 67.2747
CN(C)C(=O)COc1cccc(Nc2nc(-c3cccc4ccccc34)cn3ccnc23)c1 [CBK037393] | 127.195
Nn1cnn2c(SCc3ccc(Cl)cc3)nnc12 [CBK263193] | 95.1434
CC1CCCN(CCCNS(=O)(=O)c2ccc(N3CCCC3=O)cc2)C1 (centres unmarked) [CBK304213] | 92.0926
Brc1ccc2c(c1)COC1(CN3CCC1CC3)O2 (centres unmarked) [CBK105268] | 111.651
O=C1NCC2(C/C=C/CCOc3ccccc31)CCN(C(=O)Cc1cccc(F)c1)CC2 [CBK292015] | 90.7576
Cc1n[nH]c(C)c1-c1ccc2c(cnn2C)c1 [CBK307314] | 48.1253
Cc1cc(NC(=O)C(C)(C)C)nc2c1c(=O)oc1ccccc12 [CBK287443] | 86.6134
CC(C)(C)OC(=O)N1CCC(C(=O)NC[C@H](CC(=O)O)c2ccc(Cl)cc2)CC1 [CBK286691] | 64.403
COc1ccc(Cl)cc1C1(CNC(=O)C2CCC(N)C2)CCOCC1 (centres unmarked) [CBK305523] | 28.8238
CS(=O)(=O)c1ccccc1C(=O)n1ccn(-c2cccc(C(F)(F)F)c2)c1=O [CBK106584] | 83.9096
CCOC(=O)COc1ccc(C#N)cc1OCC [CBK058937] | 76.6355
CC(C)[C@H]1CN(Cc2ccco2)CCN1C(=O)N1CCOCC1 [CBK284273] | 80.6909

SMILES | % of control remaining
Cn1ccnc1C(NC(=O)C1C2CCCCC21)c1ccc(F)cc1 (centres unmarked) [CBK281441] | 89.1037
CCN(CC)C(=O)Cn1nc(C)n2c(cc3sccc32)c1=O [CBK284044] | 104.162
O=C(c1nc2ccccc2s1)C1CCN(C(=O)CCc2ccc(-c3ccccc3)o2)CC1 [CBK286170] | 82.7832
Cc1cc(NC(=O)c2ccc(OC(C)C)cc2)no1 [CBK287575] | 96.9983
O=C(O)COc1cccc(NC(=O)c2ccccc2)c1 [CBK264602] | 111.229
O=S(=O)(NC1CCN(Cc2ccccc2)CC1)c1cccc2nsnc12 [CBK062029] | 84.6055
CCN(CC)c1ccc(/C=N/NC(=O)CC2=NNC(=O)C2)cc1 [CBK020059] | 115.366
Cc1[nH]nc(-c2ccc(O)c(C)c2O)c1Oc1ccc(F)cc1 [CBK264478] | 83.2583
COc1ccc(C2(C(=O)Nc3ccc(-c4ccccc4OC)cc3)CCOCC2)cc1 [CBK285710] | 88.4162
COc1ccc(-c2nc(-c3ccc(C#N)cc3)cnc2N)cc1OC [CBK063885] | 64.5384
O=C(Nc1ccccc1C(=O)Nc1ccccc1C(=O)O)c1ccccc1 [CBK261551] | 88.0466
Cn1nc(C(=O)NCCSc2n[nH]c(=O)[nH]c2=O)c2ccccc2c1=O [CBK297501] | 98.4436
O=C(NC1(c2ccccc2)CC1)c1cc(-n2cnnc2)ccc1Cl [CBK282777] | 82.2997
CCCCn1cc(CN(C)C)c2c(C)ccnc21 [CBK008697] | 45.9488
COc1ccc(C(C)C)cc1-c1cnc2nc(O)ccc2c1 [CBK081286] | 55.9109
O=[N+]([O-])c1ccc(N2CCNCC2)cc1NCc1ccccn1 [CBK268074] | 126.223
O=C(O)CCCCn1c2c(c3ccccc31)CCCC2 [CBK000253] | 94.3653
CC1CCN(Cc2ccc(-c3cn(CC(=O)NCc4ccc(OC(F)(F)F)c(F)c4)nn3)cc2)CC1 [CBK167536] | 27.9695
COc1ccccc1CN(C)C(C)=O [CBK024120] | 84.6653
O=C(O)/C(=C\c1ccc(Cl)cc1)NC(=O)c1ccccc1I [CBK265701] | 97.7796
NS(=O)(=O)c1ccc(NC(=O)c2cc([N+](=O)[O-])ccc2N2CCOCC2)cc1 [CBK268972] | 102.519
COc1cncc(-c2ccc(Nc3ccc(OC)nc3)nc2)c1 [CBK037773] | 145.347
C#CCNC(=O)c1nn(Cc2ccc(CN3C(=O)CCC3=O)cc2)c2ccc(OC)cc12 [CBK048668] | 108.58
Cc1ccc(C2(O)CC3CCC(C2)N3C(=O)C2CCC2)cc1 (centres unmarked) [CBK103860] | 95.5603
COc1ccnc(N2CCCN(CCN3CCOCC3)CC2)n1 [CBK084120] | 79.9134
O=c1c2ccsc2ncn1Cc1nnc(-c2ccc(Br)o2)o1 [CBK295642] | 82.7483
O=S(=O)(Cc1cccc(F)c1F)c1cc2c(N3CCNCC3)nccc2s1 [CBK045690C] | 78.9034

SMILES | % of control remaining
COc1ccc(-c2cc3cccnc3n2CC(=O)NC(C)C)cc1 [CBK285380] | 120.247
Cc1nc2c(C(=O)N3CCOCC3)cnn2c(C)c1Cc1ccccc1 [CBK162201] | 71.338
c1ccc(CCNc2cncc(-c3cccs3)n2)nc1 [CBK065510] | 119.278
O=C(COc1ccc(Cl)cc1)NCCc1ccc(S(=O)(=O)NC(=O)NC2CCCCC2)cc1 [CBK013261] | 110.986
Cc1cc(C(=O)NCCn2nc(C)c(C)c2C)c2cccc(C)c2n1 [CBK281388] | 88.1379
Cc1csc(C(Cc2ccsc2)NC(=O)c2ccc(=O)[nH]c2)n1 (centres unmarked) [CBK285109] | 94.4576
COc1ccc(NC(=O)c2ccc(-c3ccc(Nc4ccc5c(c4)OCCO5)nc3)cc2)cc1 [CBK036815] | 101.632
CC1Cc2ccccc2N1CCNC(=O)Cc1cn2ccsc2n1 (centres unmarked) [CBK306499] | 141.357
CC(C)(C)NC(=O)NC1CCC2(CC1)CC(=O)c1ccccc1O2 (centres unmarked) [CBK283390] | 70.1434
CN(C)C(=O)C1(Cc2ccccc2-c2cccnc2)CCN(Cc2ccccc2)CC1 [CBK285522] | 94.5299
O=C(O)CCC(=O)c1c[nH]c2ccccc12 [CBK261275] | 90.3455
Cc1ccn2c(=O)cc(COC(=O)c3sc4nc(C)cc(C)c4c3N)nc2c1 [CBK297783] | 92.7581
Cc1nn(C)cc1-c1cncn1C(C)Cc1c(C)nn(C)c1C (centres unmarked) [CBK281786] | 96.3398
CS(=O)(=O)N(CC(=O)N1CCN(Cc2ccc3c(c2)OCO3)CC1)c1cccc(C(F)(F)F)c1 [CBK265329] | 81.4528
c1cc(OCCN2CCCC2)c2cc[nH]c2c1 [CBK083478] | 86.6629
CCOC(=O)c1c(CN(C)C)n(-c2ccccc2)c2cc(Br)c(O)cc12 [CBK261309C] | 98.6604
COCCNC(=O)c1cc(-c2cccc(N(C)C)c2)cnc1NCC1CC1 [CBK076288] | 99.5259
NC(=O)[C@@H]1C[C@@H](O)[C@H](O)[C@H]2[C@@H]1N(c1ccc(Cl)cc1)C(=S)N2Cc1cccs1 [CBK288930] | 116.787
O=C(N[C@H]1C[C@H]2C(=O)Nc3ccccc3C(=O)N2C1)c1ccccc1 [CBK289354] | 78.4959
Cc1noc(C)c1C(=O)N1CCCCCC1c1ccn(C)n1 (centres unmarked) [CBK284917] | 83.7822
O=C(C(c1ccccc1)c1ccccc1)N1CCN(c2ncccn2)CC1 [CBK144504] | 105.808
COc1cccc2cc(C(=O)NCc3ccc4c(c3)OCO4)oc12 [CBK149797] | 91.1222
COc1cc(C)cc(OC)c1-c1ncnc(C)c1C [CBK306762] | 66.5732
CO[C@@]12CC[C@@H](O)C[C@@H]1N(C(=O)c1cccc3c1NCCC3)CC2 [CBK306741] | 77.1963
O=C(O)c1ccc(OCCN2CCOCC2)cc1 [CBK287038] | 75.5227
Cc1ccc(C)c2[nH]c(=O)c(CN(CCN3CCOCC3)Cc3nnnn3Cc3ccccc3)cc12 [CBK108063] | 103.49
